Test results published in the BET-seq Pho4 binding data (Le et al. 2018).
Some of the results follow. The energies were worked out here from pooled read counts, against the library average; single values are noisy.

Each sequence was assayed against T1, Pho4 (S. cerevisiae) (UniProt P07270) (assay: relative binding free energy (BET-seq); higher = weaker binding). Settings: reference: library average.
T1 sequence: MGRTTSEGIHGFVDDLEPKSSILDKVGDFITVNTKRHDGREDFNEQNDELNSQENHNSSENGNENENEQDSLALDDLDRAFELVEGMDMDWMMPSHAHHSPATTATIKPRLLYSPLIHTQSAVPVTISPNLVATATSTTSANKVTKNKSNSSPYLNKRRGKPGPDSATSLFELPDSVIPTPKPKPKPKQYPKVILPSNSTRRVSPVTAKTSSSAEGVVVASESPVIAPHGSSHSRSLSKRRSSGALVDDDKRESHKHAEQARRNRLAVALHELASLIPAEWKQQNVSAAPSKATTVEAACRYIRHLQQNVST

| Sequence | relative binding free energy [kcal/mol] |
| --- | --- |
| TGAGTCACGTGAGGCT | 0.23 |
| TTCGTCACGTGGAAAG | 0.07 |
| TAGGTCACGTGGGGGC | -0.04 |
| TTCCGCACGTGGGGGG | -0.26 |
| AATTGCACGTGATATG | 0.03 |
| GGATTCACGTGTAAGT | 0.42 |
| AGGGTCACGTGCGTTG | 0.07 |
| AGGCTCACGTGTGAAT | 0.33 |
| AAATACACGTGTGTGA | 0.12 |
| GTGGGCACGTGCAATT | -0.1 |
| AGGTGCACGTGATAGT | 0.03 |
| AGTTTCACGTGCGCGG | 0.04 |
| ACGTGCACGTGCTGTT | 0 |
| TTGTTCACGTGAGGTT | 0.5 |
| CGGGGCACGTGCAGTT | 0.03 |
| ATGTACACGTGGGCTA | -0.25 |
| TAGGGCACGTGTCCTG | -0.23 |
| TGATTCACGTGTCTCT | 0.35 |
| TTGTTCACGTGTTCCG | 0.43 |
| TCGTTCACGTGTTAGA | 0.21 |
| AGCTGCACGTGTTTAG | 0.15 |
| ACTTTCACGTGGTTGA | 0.2 |
| TTTTCCACGTGAGGTG | 0.27 |
| GGCTACACGTGGTTTA | 0.15 |
| TGTCACACGTGTTAAT | 0.19 |

| Sequence | relative binding free energy [kcal/mol] |
| --- | --- |
| AGAGCCACGTGTTGGT | -0.04 |
| GGGCTCACGTGTGGTC | 0.17 |
| TATAGCACGTGATATG | 0.1 |
| GGTTACACGTGGGTGT | 0.08 |
| ACTTTCACGTGTTTGT | 0.2 |
| ATGGACACGTGTTAGT | 0.01 |
| ACGTGCACGTGGGCAG | -0.17 |
| CTTGGCACGTGGACGT | -0.17 |
| TGTATCACGTGTCGCT | 0.11 |
| GAGAGCACGTGCGTTG | -0.12 |
| AGTGTCACGTGTCGAA | 0.15 |
| TGGATCACGTGGGTCT | -0.01 |
| TGTTGCACGTGCTTAA | 0 |
| TATGTCACGTGCGATG | 0.08 |
| CTTGACACGTGTAAGG | 0.06 |
| TTTGCCACGTGTATAG | -0.03 |
| TCGGTCACGTGTAGGA | 0.11 |
| GTTCACACGTGTTTTG | 0.13 |
| ATGGGCACGTGAAAAG | 0.21 |
| TTGTGCACGTGGAACT | -0.08 |
| TATTGCACGTGGTTCA | -0.12 |
| TTATTCACGTGGGATA | 0.16 |
| GAGGTCACGTGTTGAG | 0.19 |
| GTCATCACGTGATGAG | 0.46 |
| AGTACCACGTGAGGGT | 0.09 |

| Sequence | relative binding free energy [kcal/mol] |
| --- | --- |
| TAAAACACGTGGTTGT | -0.18 |
| TGGAACACGTGTTATT | 0.06 |
| ACGGGCACGTGAAAGG | 0.14 |
| TATTGCACGTGTATGG | -0.01 |
| AGGTGCACGTGATCAG | -0.12 |
| GTTGTCACGTGTTAGT | 0.25 |
| TGAACCACGTGTGGGT | 0.16 |
| TTCGTCACGTGCGGTT | 0.2 |
| CTTTTCACGTGGATGT | 0.26 |
| GATGTCACGTGGGAGC | 0.02 |
| TGTCTCACGTGAGGTG | 0.39 |
| GGCAGCACGTGTGTGT | -0.1 |
| CGGATCACGTGTGTTT | 0.25 |
| AGACGCACGTGTGAGT | 0 |
| ATACGCACGTGGCGTG | -0.19 |
| TGGGGCACGTGAGTCT | 0.05 |
| AGCGACACGTGAGGGT | 0.26 |
| TGCTACACGTGGTTTG | 0.01 |
| GGGTGCACGTGGATAA | -0.03 |
| AGTGGCACGTGGCTAG | -0.03 |
| TTATGCACGTGTAGGG | 0.03 |
| TGTTGCACGTGGTGAG | 0.07 |
| TGAGACACGTGGGCTT | -0.12 |
| TTAGCCACGTGAGTGT | 0.07 |
| TCTTACACGTGGTGCG | 0.12 |

| Sequence | relative binding free energy [kcal/mol] |
| --- | --- |
| TAATACACGTGAATTG | 0.13 |
| TTGGTCACGTGTTCAG | 0.19 |
| TTAACCACGTGGGGAG | -0.13 |
| AAGGTCACGTGAGGTA | 0.24 |
| AATTTCACGTGTAATA | 0.22 |
| CGTGGCACGTGAATAT | 0.21 |
| GGTTACACGTGGGCAA | -0.02 |
| GCTGTCACGTGTTGGA | 0.12 |
| AGTTTCACGTGCTGGA | 0.29 |
| GTTGTCACGTGAGAAG | 0.43 |
| GTGGGCACGTGAGACA | 0.06 |
| TTTTGCACGTGAGTAC | 0.27 |
| TAAAACACGTGAGGAT | 0.39 |
| GTTATCACGTGACAGG | 0.21 |
| ATGCACACGTGAGTGT | 0.2 |
| GAGTGCACGTGGGAGG | 0.01 |
| TAGAGCACGTGGTGAT | -0.18 |
| ATGTTCACGTGAAGAG | 0.37 |
| TGAGTCACGTGCGAGG | -0.07 |
| TTGACCACGTGTTTGA | 0.11 |
| CGGGACACGTGGGCGG | -0.1 |
| CTGTGCACGTGTTAAT | -0.12 |
| TACTGCACGTGGGGGC | -0.24 |
| CGTCTCACGTGTTTGG | 0.32 |
| TGTGACACGTGTGGAA | 0.02 |

| Sequence | relative binding free energy [kcal/mol] |
| --- | --- |
| TTGTTCACGTGACTGA | 0.34 |
| CGTTGCACGTGGATGA | -0.03 |
| AGGATCACGTGGTATA | -0.05 |
| TCAGTCACGTGGGTTT | -0.04 |
| TCATTCACGTGACGTG | 0.46 |
| TAGCTCACGTGGATGT | 0.23 |
| ATTGGCACGTGAGAAA | 0.22 |
| TGCAACACGTGTCGGG | 0.01 |
| GAGTACACGTGTAAGT | 0.11 |
| GAGGTCACGTGGAATG | 0.33 |
| GAGGGCACGTGCATGT | -0.31 |
| TCCGGCACGTGTGGGC | 0.08 |
| ACATTCACGTGGGCGG | 0.17 |
| TTAGACACGTGATTGA | 0.14 |
| TTGTTCACGTGAGTGG | 0.42 |
| GGGGTCACGTGGGCAC | 0.07 |
| CTGTGCACGTGTCTGT | 0.01 |
| ATATTCACGTGGGTTC | 0.1 |
| AGCTTCACGTGGGGTA | 0.05 |
| GTTCGCACGTGTATAG | 0.08 |
| TTGCTCACGTGAGGTG | 0.46 |
| ATTTTCACGTGAAAAG | 0.28 |
| CTGGTCACGTGAAATG | 0.51 |
| AGAGGCACGTGCGATG | -0.26 |
| GTGGACACGTGGATAG | 0.07 |

| Sequence | relative binding free energy [kcal/mol] |
| --- | --- |
| ACGGGCACGTGGCGAT | 0.01 |
| TTCATCACGTGTATGG | 0.1 |
| AAAGTCACGTGATGGT | 0.18 |
| GTCCGCACGTGTGTGT | -0.07 |
| TTTGTCACGTGGCCTT | -0.09 |
| AAGGGCACGTGGTGAA | -0.2 |
| TTGTACACGTGATCGG | 0.19 |
| TGTGACACGTGATTTC | 0.18 |
| TTGGGCACGTGGTATA | -0.13 |
| CGGTGCACGTGAGGTT | 0.22 |
| AAGGGCACGTGGGGCA | -0.3 |
| GAGGTCACGTGGTAAG | 0.12 |
| TGGGACACGTGTAGAA | 0.07 |
| CGTATCACGTGTTTTT | 0.26 |
| TTGGGCACGTGGGTGC | -0.15 |
| AGGCACACGTGGAGGT | -0.15 |
| TGTGGCACGTGTATTA | -0.11 |
| ATTTTCACGTGCTGTA | 0.17 |
| GGGTGCACGTGTGAGC | 0.17 |
| GTTTTCACGTGGTTCA | 0.16 |
| GGGCCCACGTGTGGAT | 0.09 |
